Reference: PubChem BioAssay (Tox21)
Values joined by “and” are separate entries in the source; they are usually repeats but may differ in a detail not shown here. Equal entries are not always repeated. Inconclusive means that the source gave no clear call. Such entries were picked first, then a sample of the others. Potencies of inconclusive entries are doubtful fits and often do not repeat. Active and inactive are the calls of the source. Calls follow the shape of the dose curve; as a rule, active = well fitted curve in the direction sought with a large enough effect in the repeat runs; inconclusive = weak or mixed curves; inactive = no such curve, though single readings can be large; an effect the other way counts as inactive or inconclusive.

Legend:
[1] = target: Cytochrome P450 1A2 (Homo sapiens) (UniProt P05177); assay: Cytochrome P450 Family 1 Subfamily A Member 2 (CYP1A2) small molecule antagonists: luciferase reporter qHTS assay (AID 1671199); as to activity change, negative = inhibition: series mostly up to about 120 µM
Chain of UniProt P05177 (P05177 whole entry, looked up): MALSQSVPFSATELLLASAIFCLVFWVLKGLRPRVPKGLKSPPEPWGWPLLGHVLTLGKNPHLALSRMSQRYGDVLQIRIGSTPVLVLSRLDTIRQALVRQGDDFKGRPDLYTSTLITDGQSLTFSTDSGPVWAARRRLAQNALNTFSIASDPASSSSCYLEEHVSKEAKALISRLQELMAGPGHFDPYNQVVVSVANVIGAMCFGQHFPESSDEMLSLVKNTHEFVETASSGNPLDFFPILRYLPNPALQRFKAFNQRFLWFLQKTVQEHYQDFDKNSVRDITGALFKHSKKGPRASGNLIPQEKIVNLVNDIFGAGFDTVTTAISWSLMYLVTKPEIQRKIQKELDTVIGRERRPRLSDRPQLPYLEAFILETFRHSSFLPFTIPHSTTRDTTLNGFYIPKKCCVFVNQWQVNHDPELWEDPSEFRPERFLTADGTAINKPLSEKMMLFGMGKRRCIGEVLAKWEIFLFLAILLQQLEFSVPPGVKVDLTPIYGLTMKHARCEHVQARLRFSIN
Method in brief: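 Luminescence from luciferin formed by CYP1A2 from a proluciferin substrate, read 20 min after detection reagent. Compound was pre-incubated 10 min with enzyme-substrate, and reaction started with NADPH regeneration solution for 1 h at room temperature; furafylline control.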

[2] = target: Cytochrome P450 3A4 (Homo sapiens) (UniProt P08684); assay: Cytochrome P450 Family 3 Subfamily A Member 4 (CYP3A4) small molecule antagonists: luciferase reporter qHTS assay (AID 1671201); as to activity change, negative = inhibition: series mostly up to about 120 µM
Chain of UniProt P08684 (P08684 whole entry, looked up): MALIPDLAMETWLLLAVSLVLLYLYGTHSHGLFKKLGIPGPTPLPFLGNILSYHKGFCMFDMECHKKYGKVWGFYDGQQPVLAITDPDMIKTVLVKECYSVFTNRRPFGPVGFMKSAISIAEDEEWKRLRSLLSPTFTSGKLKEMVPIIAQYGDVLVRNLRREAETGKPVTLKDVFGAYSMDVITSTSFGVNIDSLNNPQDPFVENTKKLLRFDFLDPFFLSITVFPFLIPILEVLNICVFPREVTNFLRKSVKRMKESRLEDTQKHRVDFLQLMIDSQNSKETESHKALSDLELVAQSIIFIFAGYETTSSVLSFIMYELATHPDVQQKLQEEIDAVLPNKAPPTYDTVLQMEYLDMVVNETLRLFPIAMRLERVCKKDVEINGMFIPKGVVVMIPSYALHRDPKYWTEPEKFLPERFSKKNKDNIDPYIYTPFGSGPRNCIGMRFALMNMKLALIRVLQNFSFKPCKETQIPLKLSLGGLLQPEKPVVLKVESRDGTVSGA
Method in brief: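 Enzyme and proluciferin substrate are mixed with test chemicals for 10 min, then NADPH regeneration system drives turnover for 1 h at room temperature. A detection reagent halts the reaction; luminescence after 20 min gives relative activity.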

[3] = target: Voltage-gated inwardly rectifying potassium channel KCNH2 (Homo sapiens) (UniProt Q12809); assay: Human Ether-a-go-go-Related Gene (hERG) channel small molecule antagonists: fluorescence cell-based qHTS assay (AID 1671200);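 as to activity change, negative = inhibition: hERG-expressing U2OS cells given a thallium stimulus after FluxOR II dye loading; series mostly up to about 77 µM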
Chain of UniProt Q12809 (Q12809 whole entry, looked up): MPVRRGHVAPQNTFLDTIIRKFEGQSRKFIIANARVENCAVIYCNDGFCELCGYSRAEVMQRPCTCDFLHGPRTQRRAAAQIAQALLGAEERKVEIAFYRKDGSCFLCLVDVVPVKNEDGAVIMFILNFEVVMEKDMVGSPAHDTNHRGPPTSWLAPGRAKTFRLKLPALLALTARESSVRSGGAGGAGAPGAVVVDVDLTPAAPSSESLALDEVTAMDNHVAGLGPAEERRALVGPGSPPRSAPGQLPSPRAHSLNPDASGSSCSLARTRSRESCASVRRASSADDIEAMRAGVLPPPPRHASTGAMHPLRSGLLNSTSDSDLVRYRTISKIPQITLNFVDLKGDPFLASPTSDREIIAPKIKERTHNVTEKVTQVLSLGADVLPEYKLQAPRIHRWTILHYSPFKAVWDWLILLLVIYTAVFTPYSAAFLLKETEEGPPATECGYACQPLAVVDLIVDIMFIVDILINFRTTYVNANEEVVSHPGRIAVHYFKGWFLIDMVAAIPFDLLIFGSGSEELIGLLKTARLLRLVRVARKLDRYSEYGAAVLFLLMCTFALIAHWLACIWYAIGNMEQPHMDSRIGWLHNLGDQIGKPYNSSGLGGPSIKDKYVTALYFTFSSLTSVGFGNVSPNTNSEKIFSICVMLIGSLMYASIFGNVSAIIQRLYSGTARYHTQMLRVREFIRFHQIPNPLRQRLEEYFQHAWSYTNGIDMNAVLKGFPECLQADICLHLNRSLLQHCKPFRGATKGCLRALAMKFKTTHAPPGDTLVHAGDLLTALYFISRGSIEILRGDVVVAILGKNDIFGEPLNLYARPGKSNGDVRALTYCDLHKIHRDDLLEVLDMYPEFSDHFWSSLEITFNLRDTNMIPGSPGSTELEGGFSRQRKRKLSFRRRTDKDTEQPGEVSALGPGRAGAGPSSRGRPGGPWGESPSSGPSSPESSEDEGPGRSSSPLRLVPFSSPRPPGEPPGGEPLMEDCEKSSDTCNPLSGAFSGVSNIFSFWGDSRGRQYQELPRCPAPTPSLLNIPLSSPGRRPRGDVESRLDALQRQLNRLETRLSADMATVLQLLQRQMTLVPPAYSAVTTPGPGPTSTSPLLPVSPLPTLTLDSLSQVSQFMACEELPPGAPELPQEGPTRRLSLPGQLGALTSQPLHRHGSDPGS
Method in brief: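 First, 1000 cells per well are seeded and cultured overnight at 37 C. Next, FluxOR II dye is loaded for 1 h at room temperature, protected from light. After 10 more minutes, stimulus is added and fluorescence is read.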
% is scaled to controls: 0 for no effect and ±100 for the full control effect; potency is read from the fitted curve at half-maximal effect; tags tell the direction and shape of the fitted curve.
Also: nearly all actives have a fitted effect of over 50% in size.

With CC(=O)Nc1cccc(N)c1 the Potency [1] was inconclusive: 72 µM [inhibitor, partial curve, poor fit] and the Potency [2] was inconclusive: 40.5 µM [inhibitor, partial curve].
O=C(O)C[C@H](O)C[C@H](O)/C=C/c1c(C2CC2)nc2ccccc2c1-c1ccc(F)cc1 was tested, and the activity change, negative = inhibition [1] was inactive: -11.8% [at 23.6 µM] and the activity change, negative = inhibition [2] was inactive: -3.86% [at 23.6 µM].
With Cc1cccc(C(=O)O)c1[N+](=O)[O-] the Potency [1] was active: 63.4 µM and the Potency [2] was inconclusive: 79.8 µM [inhibitor, single point].
CC1CCC(C(C)(C)S)C(=O)C1 (stereo not given) was tested, and the Potency [1] was “inactive” and the Potency [2] was inconclusive: 35.6 µM [inhibitor, partial curve].
In the case of CC(=O)CC/C=C(\C)CC/C=C(\C)CC/C=C(\C)CCC=C(C)C, the Potency [1] is reported as inconclusive: 34.7 µM [inhibitor, single point] and the Potency [2] is reported as inconclusive: 34.7 µM [inhibitor, partial curve].
With N=C(N)N the Potency [1] was “inactive” and the Potency [2] was “inactive”.
In the case of CCCCC(CC)COC(=O)/C=C\C(=O)OCC(CC)CCCC (stereo not given), the Potency [1] is reported as inconclusive: 39.9 µM [inhibitor, partial curve] and the Potency [2] is reported as inconclusive: 5.63 µM [inhibitor, full curve].
With O=C(C(=O)c1ccco1)c1ccco1 the Potency [1] was active: 35.9 µM and the Potency [2] was inconclusive: 71.6 µM [inhibitor, partial curve, poor fit].
CCCCCCCCN1CCCC1=O was tested, and the Potency [1] was active: 39.9 µM and the Potency [2] was “inactive”.
C=CC(C)(O)CCC=C(C)C (stereo not given) was tested, and the Potency [1] was inconclusive: 70.2 µM [inhibitor, partial curve] and inactive and the Potency [2] was inconclusive: 63.3 µM [inhibitor, partial curve, poor fit].
O=Cc1ccc([N+](=O)[O-])cc1 was tested, and the Potency [1] was inconclusive: 63.7 µM [inhibitor, partial curve] and the Potency [2] was inconclusive: 63.7 µM [inhibitor, partial curve, poor fit].
For CC[Si](OC(C)=O)(OC(C)=O)OC(C)=O, the Potency [1] was inconclusive: 39.9 µM [inhibitor, partial curve] and the Potency [2] was active: 3.17 µM and active: 35.6 µM.
With CCC/C=C/C=O the Potency [1] was inconclusive: 71 µM [inhibitor] and the Potency [2] was inconclusive: 63.3 µM [inhibitor, partial curve].
In the case of CCN(CC)c1ccc2c(c1)Oc1cc(N(CC)CC)ccc1C21OC(=O)c2ccccc21, the Potency [1] is reported as inconclusive: 13.8 µM [inhibitor, partial curve] and the Potency [2] is reported as active: 11 µM.
Cc1ccc(S(=O)(=O)NC2CCCCC2)cc1 was tested, and the Potency [1] was inconclusive: 39.7 µM [inhibitor, partial curve] and the Potency [2] was active: 17.7 µM.
In the case of O=C(O)c1ccccc1C(=O)Nc1ccc(S(=O)(=O)Nc2nccs2)cc1, the Potency [1] is reported as “inactive” and the Potency [2] is reported as “inactive”.
In the case of CC1C2CC(CC2C2CCCC(O)C2)C1(C)C (stereo not given), the Potency [1] is reported as inconclusive: 22.4 µM [inhibitor, full curve] and the Potency [2] is reported as inconclusive: 71 µM [inhibitor, partial curve, poor fit].
In the case of COc1ccc(-c2cc(=S)ss2)cc1, the Potency [1] is reported as active: 0.911 µM and the Potency [2] is reported as inconclusive: 17.4 µM [inhibitor, partial curve].
With COS(=O)(=O)C(F)(F)F the Potency [1] was inconclusive: 66.1 µM [inhibitor, partial curve] and the Potency [2] was “inactive”.
For COc1cc(-c2ccc(N=C=O)c(OC)c2)ccc1N=C=O, the Potency [1] was “inactive” and the Potency [2] was inconclusive: 13.7 µM [inhibitor, partial curve].
For C1=CCC2CC=CC2C1 (stereo not given), the Potency [1] was inconclusive: 35.5 µM [inhibitor, partial curve] and the Potency [2] was inconclusive: 39.8 µM [inhibitor, partial curve].
With CC(CCc1ccc(O)cc1)NCCc1ccc(O)c(O)c1 (stereo not given) the Potency [1] was “inactive” and the Potency [2] was “inactive”.
In the case of C[C@]12CC[C@@H]3c4ccc(O)cc4CC[C@H]3[C@@H]1CC[C@H]2O, the Potency [1] is reported as inconclusive: 20.3 µM [inhibitor, full curve] and inconclusive: 35.6 µM [inhibitor, partial curve] and the Potency [2] is reported as inconclusive: 22.8 µM [inhibitor, full curve].
With CCCCCCOC(=O)CC(CC(=O)OCCCCCC)(OC(=O)CCC)C(=O)OCCCCCC the Potency [1] was “inactive” and the Potency [2] was inconclusive: 3.99 µM [inhibitor, full curve].
O=C(OCC1CO1)C1CCCCC1C(=O)OCC1CO1 (stereo not given) was tested, and the Potency [1] was inconclusive: 79.8 µM [inhibitor, single point] and the Potency [2] was inconclusive: 35.6 µM [inhibitor, partial curve, poor fit].
In the case of Cc1cc([N+](=O)[O-])ccc1N, the Potency [3] is reported as “inactive”.
For Cc1nc(N)nc(N)c1-c1ccc(Cl)c(Cl)c1, the Potency [3] was inconclusive: 19 µM [inhibitor, partial curve, poor fit].
For Cc1ccccc1C(=O)O, the Potency [3] was “inactive”.
For Cc1cc(CCCOc2c(C)cc(-c3noc(C(F)(F)F)n3)cc2C)on1, the Potency [3] was inconclusive: 21.3 µM [inhibitor].
CC(C)C(OC(=O)c1ccccc1)C(C)(C)COC(=O)c1ccccc1 (stereo not given) was tested, and the Potency [3] was inconclusive: 21.9 µM [inhibitor].
O=C(O)CCCC[C@@H]1SC[C@@H]2NC(=O)N[C@@H]21 was tested, and the Potency [3] was “inactive”.
N[C@@H](Cc1c[nH]c2ccccc12)C(=O)O was tested, and the Potency [3] was “inactive”.
For Cc1cccc(CN2CCN(C(c3ccccc3)c3ccc(Cl)cc3)CC2)c1 (stereo not given), the Potency [3] was active: 2.39 µM.
For CC(CN(C)C)C(C)(O)Cc1ccc(Cl)cc1 (stereo not given), the Potency [3] was inconclusive: 21.3 µM [inhibitor, partial curve, poor fit].
IC(I)I was tested, and the Potency [1] was inconclusive: 79.6 µM [inhibitor, single point] and the Potency [2] was inconclusive: 31.7 µM [inhibitor, partial curve] and inconclusive: 63.3 µM [inhibitor, partial curve].
In the case of CC(C)(Oc1ccc(Cl)cc1)C(=O)O, the Potency [3] is reported as inconclusive: 15.1 µM [inhibitor, single point].
With CC1(C)C(C=C(Cl)Cl)C1C(=O)OCc1cccc(Oc2ccccc2)c1 (stereo not given) the Potency [3] was inconclusive: 24.4 µM [inhibitor, partial curve, poor fit].
NC(=O)N(O)[C@@H]1C=C[C@H](Oc2cccc(Oc3ccc(F)cc3)c2)C1 was tested, and the Potency [3] was inconclusive: 38.9 µM [inhibitor, partial curve].
In the case of CCCCCCCCCCCCCC(=O)OCC(O)CO (stereo not given), the Potency [3] is reported as “inactive”.
CN(C)CC/C=C1\c2ccccc2Sc2ccc(Cl)cc21 was tested, and the Potency [3] was active: 3.01 µM.
In the case of CN(C)CCc1c[nH]c2ccc(C[C@H]3COC(=O)N3)cc12, the Potency [3] is reported as “inactive”.
With Clc1ccc(Cl)c(Cl)c1Cl the Potency [3] was “inactive”.
With CCOC(=O)c1ccc(NC(=O)CN2CCCCC2)cc1 the Potency [3] was “inactive”.
For O=C1[C@H]2CCCC[C@H]2C(=O)N1CCCCN1CCN(c2nsc3ccccc23)CC1, the Potency [3] was active: 8.49 µM.
With C[CH2][Ge]([Cl])([CH2]C)[CH2]C the Potency [3] was “inactive”.
For CCCCN(CCCC)C(=S)SSC(=S)N(CCCC)CCCC, the Potency [3] was inconclusive: 54.4 µM [inhibitor, single point].
For O=C(Oc1ccccc1)c1ccccc1C(=O)Oc1ccccc1, the Potency [3] was inconclusive: 43.6 µM [inhibitor, partial curve].
For CCN(C(=O)c1cc(C)cc(OC[C@H](C)Nc2ccncc2)c1)C(C)C, the Potency [3] was active: 17.2 µM.
For COc1cc(C(=O)OCCCN2CCCN(CCCOC(=O)c3cc(OC)c(OC)c(OC)c3)CC2)cc(OC)c1OC, the Potency [3] was active: 6.01 µM.
With CCOc1cccc(-n2cc(C(=O)N3CCN(c4cc(C(=O)O)c5ccccc5c4)CC3)nc2-c2ccc(C)cc2)c1 the Potency [3] was inconclusive: 46.7 µM [inhibitor, partial curve].
In the case of CCN(CC)CCOC(=O)C(c1ccccc1)c1ccccc1, the Potency [3] is reported as active: 2.68 µM.
For O=C(c1ccc(F)cc1)C1CCN(CCn2c(=O)[nH]c3ccccc3c2=O)CC1, the Potency [3] was active: 2.39 µM.
CC/C=C\CCOC(=O)c1ccccc1O was tested, and the Potency [3] was inconclusive: 34.7 µM [inhibitor].
With CCCc1ccc(OCC(=O)N2CCN(C(=O)COc3ccc(CCC)cc3OC)CC2)c(OC)c1 the Potency [3] was active: 1.34 µM.
For CCCCC(CC)COCCCN (stereo not given), the Potency [3] was active: 38.5 µM.
With CC(=O)N[C@@H](Cc1ccc(O)cc1)C(=O)O the Potency [3] was “inactive”.
For O=C(/N=N/C(=O)OCc1ccccc1)OCc1ccccc1, the Potency [3] was inconclusive: 21.9 µM [inhibitor, partial curve].
COc1cc(C(=O)N2CCOCC2)cc(OC)c1OC was tested, and the Potency [3] was “inactive”.
With O[Si](c1ccccc1)(c1ccccc1)c1ccccc1 the Potency [3] was inconclusive: 24.5 µM [inhibitor, partial curve].
In the case of NC1CCN(c2nc3c(cc2F)c(=O)c(C(=O)O)cn3-c2ccc(F)cc2F)C1 (stereo not given), the Potency [3] is reported as “inactive”.
COc1ccc(CCN(C)CCCN2CCc3cc(OC)c(OC)cc3CC2=O)cc1OC was tested, and the Potency [3] was inconclusive: 12 µM [inhibitor, partial curve].
c1cc[c]([Bi]([c]2ccccc2)[c]2ccccc2)cc1 was tested, and the Potency [3] was inconclusive: 13.8 µM [inhibitor, full curve].
For CC(C)(C)CC(C)(C)c1ccc(OCCO)cc1, the Potency [3] was inconclusive: 43.4 µM [inhibitor, partial curve].
With Nc1c(S(=O)(=O)O)cc(Br)c2c1C(=O)c1ccccc1C2=O the Potency [2] was inconclusive: 32.4 µM [inhibitor, partial curve] and inactive.
COc1nc(C)nc(NC(=O)NS(=O)(=O)c2ccccc2OCCCl)n1 was tested, and the Potency [2] was inconclusive: 39.7 µM [inhibitor, partial curve].
With CN(C)c1ccc(C(=N)c2ccc(N(C)C)cc2)cc1 the Potency [3] was inconclusive: 47.1 µM [inhibitor, single point] and the Potency [2] was active: 39.4 µM and inconclusive: 34.3 µM [inhibitor, partial curve, poor fit].
In the case of CC(=O)Nc1ccc2c(c1)Cc1cc(NC(C)=O)ccc1-2, the Potency [2] is reported as “inactive”.
For O=C(c1ccc(O)cc1)c1ccc(Cl)cc1, the Potency [2] was inconclusive: 57.6 µM [inhibitor, partial curve, poor fit].
